{
  "source": "the supplement of paper PMC9446081",
  "note": "In all, about 39,000 compounds went through this assay and about 220 (0.56%) showed activity. This is one part of the list.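 Note: static incubation at 37 °C against the wild-type strain, values averaged over two biological replicates.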",
  "data": [
    {"system": "Escherichia coli K-12 BW25113", "assay": "relative growth (OD600 normalised to plate interquartile mean) (fraction); higher = less growth inhibition, active = 0.2 or less", "conditions": "50 µM; LB; incubation time: overnight (16-24 h)", "values": [
      {"molecule": "COc1cccc(S(=O)(=O)N2C[C@H](O)COC[C@@H]3O[C@H](CC(=O)N4CCN(C)CC4)CC[C@H]32)c1", "relative growth": "inactive: 1"},
      {"molecule": "C[C@@H]1CCCCO[C@@H](CN(C)S(=O)(=O)c2cn(C)cn2)[C@@H](C)CN([C@@H](C)CO)C(=O)c2cc(NC(=O)Nc3ccc(C(F)(F)F)cc3)ccc2O1", "relative growth": "inactive: 0.989"},
      {"molecule": "C[C@@H]1CN([C@H](C)CO)C(=O)c2cc(NS(=O)(=O)c3ccc(Cl)cc3)ccc2O[C@@H](C)CCCCO[C@H]1CN(C)Cc1ccc(C(F)(F)F)cc1", "relative growth": "inactive: 0.957"},
      {"molecule": "C[C@H](CO)N1C[C@H](C)[C@@H](CN(C)Cc2cccc(C(=O)O)c2)Oc2ncc(C#CC(C)(C)O)cc2C1=O", "relative growth": "inactive: 1"},
      {"molecule": "CO[C@@H]1CN(C)C(=O)c2ccc(NC(=O)C3CC3)cc2OC[C@@H](C)N(C(=O)CN2CCOCC2)C[C@@H]1C", "relative growth": "inactive: 0.993"},
      {"molecule": "C[C@@H]1CN([C@H](C)CO)C(=O)c2cccc(NS(=O)(=O)c3cccs3)c2O[C@H]1CN(C)Cc1ccc(-c2ccccc2)cc1", "relative growth": "inactive: 0.996"},
      {"molecule": "C[C@H](CO)N1C[C@H](C)[C@H](CN(C)Cc2ccc(Oc3ccccc3)cc2)Oc2c(NC(=O)c3nc4ccccc4s3)cccc2C1=O", "relative growth": "inactive: 1.02"},
      {"molecule": "C[C@@H]1CN([C@H](C)CO)C(=O)c2cccc(NC(=O)c3ccc(-c4nccs4)cc3)c2O[C@H]1CN(C)C(=O)Nc1cccc2ccccc12", "relative growth": "inactive: 0.962"},
      {"molecule": "O=C(O)c1ccc2nc(O)c(=O)[nH]c2c1", "relative growth": "inactive: 0.994"},
      {"molecule": "COC(=O)Nc1nc2cc(C(=O)c3cccs3)ccc2[nH]1", "relative growth": "inactive: 1.06"},
      {"molecule": "CN1CCN(C(=O)C[C@@H]2C=C[C@H](NS(=O)(=O)c3cccc(F)c3)[C@H](CO)O2)CC1", "relative growth": "inactive: 0.937"},
      {"molecule": "O=C1O[C@H](c2ccccc2)[C@H](c2ccccc2)N2[C@H]1[C@@H](C(=O)N1CCN(c3ncccn3)CC1)[C@]1(C(=O)Nc3ccc(C#CC4(O)CCCCCC4)cc31)[C@H]2c1ccc(O)cc1", "relative growth": "inactive: 1.04"},
      {"molecule": "Cc1noc(C)c1NC(=O)N(C)C[C@@H]1Oc2c(NS(C)(=O)=O)cccc2C(=O)N([C@@H](C)CO)C[C@H]1C", "relative growth": "inactive: 0.983"},
      {"molecule": "Cc1cc(C(=O)Nc2cccc3c2O[C@@H](CN(C)S(=O)(=O)c2ccccc2)[C@H](C)CN([C@H](C)CO)C3=O)n(C)n1", "relative growth": "inactive: 0.961"},
      {"molecule": "C[C@@H]1CCCCO[C@H](CN(C)C(=O)Nc2cccc3ccccc23)[C@H](C)CN([C@H](C)CO)C(=O)c2cc(NC(=O)C3CCCCC3)ccc2O1", "relative growth": "inactive: 1"},
      {"molecule": "C[C@@H]1CN([C@H](C)CO)C(=O)c2cccc(NC(=O)Nc3cccc4ccccc34)c2O[C@@H]1CN(C)Cc1ccc(Cl)c(Cl)c1", "relative growth": "inactive: 1"},
      {"molecule": "C[C@@H]1CN([C@@H](C)CO)C(=O)c2cccc(NC(=O)c3cnccn3)c2O[C@@H]1CN(C)S(=O)(=O)c1ccc(F)cc1", "relative growth": "inactive: 1.01"},
      {"molecule": "C[C@@H]1CCCCO[C@H](CN(C)C(=O)C2CCCCC2)[C@H](C)CN([C@@H](C)CO)C(=O)c2cc(NC(=O)c3ccccc3)ccc2O1", "relative growth": "inactive: 1.01"},
      {"molecule": "C[C@@H]1CN([C@H](C)CO)C(=O)c2cccc(NC(=O)c3cnccn3)c2O[C@H]1CN(C)S(=O)(=O)c1cccs1", "relative growth": "inactive: 1.01"},
      {"molecule": "CC(C)(C)OC(=O)C[C@H]1CC=CC[C@@H](CC(=O)NCCO)C(=O)N[C@@H](Cc2ccccc2)COC1=O", "relative growth": "inactive: 0.986"},
      {"molecule": "CC(C)NC(=O)N(C)C[C@H]1Oc2ncc(-c3ccc(C(=O)N(C)C)cc3)cc2C(=O)N([C@@H](C)CO)C[C@@H]1C", "relative growth": "inactive: 0.983"},
      {"molecule": "CCC1(O)CC2CN(CCc3c([nH]c4ccccc34)C(C(=O)OC)(c3cc4c(cc3OC)N(C)C3C(O)(C(=O)OC)C(OC(C)=O)C5(CC)C=CCN6CCC43C65)C2)C1.O=S(=O)(O)O", "note": "(stereo not given)", "relative growth": "inactive: 0.932"},
      {"molecule": "COc1ccc(CCN2C(=O)[C@@]3(c4ccc([N+](=O)[O-])cc4)CC(=O)N(CC45CC6CC(CC(C6)C4)C5)[C@@H]3c3ccc(CO)cc32)cc1", "relative growth": "inactive: 0.994"},
      {"molecule": "COc1ccc(-c2ccc3c(c2)O[C@H](CN(C)CC2CCOCC2)[C@H](C)CN([C@H](C)CO)S3(=O)=O)cc1", "relative growth": "inactive: 0.999"},
      {"molecule": "C[C@H](CO)N1C[C@H](C)[C@H](CN(C)Cc2ccc3c(c2)OCO3)Oc2ccc(NC(=O)Cn3cnnn3)cc2C1=O", "relative growth": "inactive: 1.01"},
      {"molecule": "COc1ccc(NC(=O)O[C@H]2[C@H](OC(=O)Nc3ccccc3-c3ccccc3)[C@@H](OC(=O)Nc3ccccc3-c3ccccc3)[C@@H](OC)O[C@@H]2COC(=O)NCCCCCC(=O)NO)cc1", "relative growth": "inactive: 1.02"},
      {"molecule": "O=C(NC1CCCCCCC1)c1ccccc1-c1ccccc1", "relative growth": "inactive: 0.992"},
      {"molecule": "C[C@H]1CN([C@@H](C)CO)C(=O)c2cccc(NC(=O)Nc3cccc4ccccc34)c2O[C@H]1CN(C)Cc1ccc(C(=O)O)cc1", "relative growth": "inactive: 0.998"},
      {"molecule": "C[C@H](CO)N1C[C@H](C)[C@@H](CN(C)C(=O)Nc2ccc(C(F)(F)F)cc2)Oc2c(NC(=O)Nc3cccc4ccccc34)cccc2C1=O", "relative growth": "inactive: 0.991"},
      {"molecule": "CN(C)CCCNC(=O)C[C@H]1CC[C@H]2[C@@H](COc3ccc(NC(=O)NC4CCCC4)cc3C(=O)N2C)O1", "relative growth": "inactive: 1.01"},
      {"molecule": "Cc1ccccc1S(=O)(=O)N1C[C@@H](O)COC[C@@H]2O[C@H](CC(=O)NCCc3ccccc3)CC[C@H]21", "relative growth": "inactive: 0.989"},
      {"molecule": "CN(C)Cc1cn(CC[C@@H]2CC[C@@H](NS(=O)(=O)c3ccccc3)[C@@H](CO)O2)nn1", "relative growth": "inactive: 1.01"},
      {"molecule": "C[C@@H]1CN([C@@H](C)CO)C(=O)Cc2cc(NC(=O)Nc3ccc(C(F)(F)F)cc3)ccc2O[C@H]1CN(C)Cc1ccncc1", "relative growth": "inactive: 1"},
      {"molecule": "C[C@@H]1CN([C@@H](C)CO)C(=O)Cc2cc(NC(=O)C3CCCCC3)ccc2O[C@@H]1CN(C)Cc1ccc(C(=O)Nc2ccccc2N)cc1", "relative growth": "inactive: 1"},
      {"molecule": "O=C1O[C@@H](c2ccccc2)[C@@H](c2ccccc2)N2[C@@H](c3ccccc3OCCO)[C@]3(C(=O)Nc4ccc(C#CC5(O)CCCCCC5)cc43)[C@@H](C(=O)O)[C@H]12", "relative growth": "inactive: 0.945"},
      {"molecule": "COCC(=O)Nc1ccc2c(c1)OC[C@H](C)N(C(=O)Cc1ccccn1)C[C@H](C)[C@@H](OC)CN(C)C2=O", "relative growth": "inactive: 0.98"},
      {"molecule": "C[C@@H]1CN([C@@H](C)CO)C(=O)CCCn2cc(nn2)CO[C@@H]1CN(C)C(=O)Nc1ccc2c(c1)OCO2", "relative growth": "inactive: 1.01"},
      {"molecule": "N#C[C@H](NCCO)c1ccc(F)cc1", "relative growth": "inactive: 1.03"},
      {"molecule": "C[C@H](CO)N1C[C@H](C)[C@@H](CN(C)Cc2cncnc2)Oc2cc(C3=CCCCC3)ccc2S1(=O)=O", "relative growth": "inactive: 1.04"},
      {"molecule": "C[C@@H]1CN([C@H](C)CO)C(=O)c2cc(NC(=O)c3ccncc3)ccc2O[C@@H](C)CCCCO[C@H]1CN(C)C(=O)Nc1ccccc1", "relative growth": "inactive: 0.996"},
      {"molecule": "CN(C)CCN(Cc1ccc(Cl)cc1)c1ccccn1.Cl", "relative growth": "inactive: 1"},
      {"molecule": "C[C@@H]1CCCCO[C@@H](CN(C)Cc2ccc(C(=O)O)cc2)[C@@H](C)CN([C@@H](C)CO)C(=O)c2cc(NC(=O)Nc3ccccc3)ccc2O1", "relative growth": "inactive: 0.995"},
      {"molecule": "COc1cccc(S(=O)(=O)Nc2ccc3c(c2)[C@H]2C[C@H](CC(=O)NCc4ccccc4F)O[C@@H](CO)[C@H]2O3)c1", "relative growth": "inactive: 1.01"},
      {"molecule": "C[C@H]1CN([C@@H](C)CO)C(=O)c2cc(NC(=O)Cc3cn(C)c4ccccc34)ccc2O[C@H]1CN(C)S(C)(=O)=O", "relative growth": "inactive: 0.997"},
      {"molecule": "CCCCCCCCCCCCCCCC(=O)OC(C)C", "relative growth": "inactive: 1.04"},
      {"molecule": "NC[C@@H](O)c1ccsc1", "relative growth": "inactive: 1.02"},
      {"molecule": "COc1ccc(NC(=O)Nc2cccc3c2O[C@H](CN(C)S(C)(=O)=O)[C@@H](C)CN([C@@H](C)CO)C3=O)cc1", "relative growth": "inactive: 0.992"},
      {"molecule": "C[C@@H]1CN([C@H](C)CO)C(=O)c2cccc(NC(=O)C3CCOCC3)c2O[C@H]1CN(C)Cc1ccc2c(c1)OCO2", "relative growth": "inactive: 1.01"},
      {"molecule": "CN1CCN(C(=O)C[C@H]2CC[C@H]3[C@@H](COC[C@@H](O)CN3S(=O)(=O)c3cccc(Cl)c3)O2)CC1", "relative growth": "inactive: 1.01"},
      {"molecule": "COc1ccc(NC(=O)N(C)C[C@@H]2OCCCC[C@H](C)Oc3ccc(NS(=O)(=O)c4ccc(Cl)cc4)cc3C(=O)N([C@@H](C)CO)C[C@@H]2C)cc1", "relative growth": "inactive: 1.03"},
      {"molecule": "C[C@@H]1CCCCO[C@@H](CN(C)Cc2ccc(C(=O)O)cc2)[C@@H](C)CN([C@@H](C)CO)C(=O)c2cc(NC(=O)Nc3ccc(F)cc3)ccc2O1", "relative growth": "inactive: 0.851"},
      {"molecule": "CC(C)CC#Cc1ccc2c(c1)O[C@@H](CN(C)C(=O)NC1CCCC1)[C@H](C)CN([C@H](C)CO)S2(=O)=O", "relative growth": "inactive: 1.01"},
      {"molecule": "CO[C@H]1CN(C)C(=O)c2cc(NS(=O)(=O)CC(F)(F)F)ccc2OC[C@H](C)N(Cc2nccs2)C[C@H]1C", "relative growth": "inactive: 0.992"},
      {"molecule": "C[C@H](CO)N1C[C@H](C)[C@@H](CN(C)C(=O)Cc2cccnc2)Oc2ncc(C#CCc3ccccc3)cc2C1=O", "relative growth": "inactive: 0.999"},
      {"molecule": "C[C@@H]1CN([C@H](C)CO)C(=O)c2cc(NS(=O)(=O)c3cn(C)cn3)ccc2O[C@H]1CN(C)C(=O)NC1CCCCC1", "relative growth": "inactive: 1.02"},
      {"molecule": "Cc1ccc(S[C@]2(C(=O)NCCCN(C)C)CC(=O)N(C3CCCCC3)[C@@H]2c2ccc(CO)cc2I)cc1", "relative growth": "inactive: 1.01"},
      {"molecule": "CN1CCN(C(=O)C[C@@H]2C=C[C@@H](NC(=O)Nc3ccccc3F)[C@H](CO)O2)CC1", "relative growth": "inactive: 1.02"},
      {"molecule": "N/C(=N/O)c1cnc2n(c1=O)CCS2", "relative growth": "inactive: 0.994"},
      {"molecule": "N[C@@H]1c2ccccc2C[C@@H]1O", "relative growth": "inactive: 0.995"},
      {"molecule": "C[C@H]1CN([C@@H](C)CO)C(=O)c2cccc(NS(=O)(=O)c3ccc(F)cc3)c2O[C@@H]1CN(C)Cc1ccc(-c2ccccc2)cc1", "relative growth": "inactive: 0.991"}
    ]}
  ]
}
